From PubChem BioAssay AID1508624 (National Center for Advancing Translational Sciences (NCATS), 2021)
Out of some 48,000 compounds screened, about 120 (0.25%) were called active. Inconclusive results (about 4%) are left out. The call rests on the fitted dose curve; in most records, active means well fitted activation curve with a large enough effect; inconclusive means small, poorly fitted or top-dose-only effect, or another doubt; inactive means no such curve, though single readings can be large or run the other way. This is one part of the list.

assay: Primary qHTS for Identification of Small Molecule Activators of Huntingtin-Antisense Promoter Activity; details: HEK293 HTT-AS promoter firefly luciferase reporter, 24 h; series mostly up to 57.5 µM; activity change, positive = activation: at the top concentration; further: nearly all actives have a fitted effect of over 55% in size
Method in brief: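 Firefly luciferase readout (Dual-Glo, 10 min RT) after 24 h, 37 °C compound exposure (final up to 57.5 uM) of HEK293 reporter cells cultured 24 h beforehand; PTC124 at 50 uM final as control inhibitor; activity scaled vehicle 0%, zero RLU -100%.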

Activity change, positive = activation, inactive:
CC1=C(c2ccc(C)c(C)c2)S(=O)(=O)N=C1N1CCC(C(=O)NCCc2ccc(Cl)cc2)CC1 -30.6%
CCOc1ccc(NC(=O)N2CC=C(c3c[nH]c4ccccc34)CC2)cc1 -20.4%
O=C1NC(=O)C(=Cc2cccc(C(F)(F)F)c2)S1 2.54%
COC(=O)c1ccc(Cl)cc1NC(=O)N1CCCn2nc(C)cc21 -3.65%
COc1cc(OC)c(NC(=O)CCCn2nc(C)c3sc4ccccc4c3c2=O)cc1Cl -14.9%
COc1nc(-c2ccc(C)cc2)ccc1-c1noc(-c2ccccc2Br)n1 -6.81%
CCCCOC(=O)CSc1nnc(-c2ccccc2)o1 13.3%
Cc1ccc(C)c(N2CCN(C(=O)CN3CCSc4ccc(S(=O)(=O)N(C)C)cc43)CC2)c1 -19.7%
O=c1c2cccnc2n(Cc2ccccc2F)c(=O)n1Cc1ccccc1Cl -7.26%
CC(=O)Nc1nonc1-c1nnc(SCC(=O)Nc2cc(C)cc(C)c2)n1C -7.81%
C[C@]12CC[C@@H]3c4ccc(O)cc4CC[C@H]3[C@@H]1CCC2=O -9.17%
Cc1oc2ncn(CC(C)C)c(=O)c2c1C(=O)N1CCN(c2ccc(F)cc2)CC1 -6.1%
COc1ccccc1CNc1ccc(-c2nc(C)no2)cc1[N+](=O)[O-] -4.76%
COc1cccc(NC(=O)/C(C#N)=C\c2cn(Cc3ccc(C)cc3)c3ccccc23)c1 -24.6%
O=C(c1ccc(C(F)(F)F)cc1)N1CCC(c2nc(-c3ccc(S(=O)(=O)N4CCCC4)cc3)no2)CC1 -29.4%
COc1ccc(-c2oc3ncn4nc(-c5ccccc5Br)nc4c3c2-c2ccc(OC)cc2)cc1 -3.5% [at 11.5 µM, percent change from vehicle, -100% = no light]
Cc1cccc(C)c1NC(=O)c1csc2c1CCCC2 -21.7%
Cc1ccc(NC(=O)Nc2nnc(SCC(=O)Nc3ccc(F)cc3F)s2)cc1 -10.4%
CCc1ccc(NC(=O)c2cc(S(=O)(=O)N3CCCCCC3)ccc2F)cc1 -26.2%
CCCCN1CC(c2nc3ccccc3n2CCCCOc2ccc(C)cc2C)CC1=O (stereo unspecified) -49.2%
O=C(NCCCc1nc2ccccc2n1Cc1cccc(Cl)c1)c1ccco1 -16.1%
O=C(c1cc(=O)c2cc(Cl)ccc2o1)N(Cc1ccccc1)C1CCS(=O)(=O)C1 (stereo unspecified) -5.33%
CC(=O)OCc1cnc(C)c2oc(=O)c(C(=O)Nc3cccc(F)c3)cc12 -5.65%
Cc1nc(N2CCCC2)c2c(C(=O)Nc3cccc(Cl)c3C)c(C)oc2n1 -24.4%
Cc1ccc(-n2ncc3c(NCCCc4ccccc4)ncnc32)cc1 25.7%
COc1ccc(NC(=O)CSc2nc3nc(C)c(Cc4ccc(C)cc4)c(C)n3n2)cc1OC -5.6%
Nc1ncnc2c1c(-c1cccc(OCc3ccccc3)c1)cn2C1CC(CN2CCC2)C1 (stereo unspecified) -0.823%
CCCNC(=O)C1CCC(Cn2c(=O)c3sccc3n(Cc3ccccc3C)c2=O)CC1 (stereo unspecified) -2.38%
COc1ccc(Cl)cc1-n1nnc(-c2nc(-c3ccc4c(c3)OCO4)no2)c1C -2.62%
COc1cc2[nH]c(=O)n(Cc3ccc(C(=O)NCc4ccccc4)cc3)c(=O)c2cc1OC -26%
COc1ccc(Nc2nc(-c3cccc(Cl)c3)c3c(n2)-c2ccccc2OC3)cc1 -17.5%
CCOc1ccccc1CNC(=O)Cc1ccc(NC(=O)N2CCCCc3ccccc32)cc1 -15.6%
CCOc1ccc(NC(=O)CSc2nc3ccsc3c(=O)n2C(C)CC)cc1 (stereo unspecified) -3.37%
CCOc1ccc(CCNC(=O)CCc2c(C)nc3c(c(C)nn3-c3ccc(C)c(C)c3)c2C)cc1 3.18%
Cc1cccc2c1-c1sc(C(=O)N3CCN(c4ccccc4)CC3)cc1CO2 -1.51%
COc1ccc(-c2noc(N3CCC(C(=O)N4CCN(c5ccccc5OC)CC4)CC3)n2)cc1 -58.4%
CCCCNS(=O)(=O)c1ccc2nc(-c3cccnc3)cc(C(=O)NCCCOC(C)C)c2c1 14.6%
CCOc1cccc(Nc2nn(-c3ccc(OC(F)(F)F)cc3)nc2C(C)=O)c1 -2.33%
CCOC(=O)c1cnc2c(C)c(Cl)ccc2c1NCCc1ccc(OC)c(OC)c1 -11.7%
Cc1nnc(C)n1-c1ccc(C(=O)Nc2cccc(Br)c2)cc1 -9.98%
COCCCNC(=O)NC(CCC(C)C)c1c(-n2cccc2)sc2c1CCN(C)C2 (stereo unspecified) -0.673%
Cc1c(Cl)cccc1NC(=O)CCCn1nc(C)c2sc3ccccc3c2c1=O -1.65%
CCC1CCCCN1S(=O)(=O)c1ccc(NC(=O)c2cc(=O)c3c(C)cc(C)cc3o2)cc1 (stereo unspecified) -10.7%
COc1cccc(N2CCN(c3c4c(nc5nncn35)CCC4)CC2)c1 -47.5%
Cc1cccc(Cn2cc3c(=O)n(CC(=O)Nc4c(C)cccc4C)nc-3c3cc(F)ccc32)c1 -16.4%
CC(C)Sc1nc2sc3c(c2c(=O)n1Cc1ccccc1)CCCC3 -2.23%
CCCCCCCCc1ccc(CCC(N)(CO)CO)cc1 -16.4%
Cc1ccc(NC(=O)C2CCN(S(=O)(=O)c3c(C)noc3C)CC2)cc1 -5.77%
CC1(C)CC(=O)c2cc(-c3nc(-c4ccccc4)cs3)c(=O)[nH]c2C1 -9.62%
O=C(NCCN1CCN(c2ccccc2)CC1)Nc1cccc(Br)c1 -7.1%
Cc1cc(N2CCN(c3cccc(C)c3C)CC2)n2cnnc2n1 -17.1%
CCOC(=O)c1cnn(-c2ccc(C(=O)Nc3ccc(OC(F)(F)F)cc3)cc2)c1N 0.251%
CC(=O)Nc1ccc(NC(=O)C2CCCN(S(=O)(=O)c3ccc4c(c3)CCCC(=O)N4)C2)cc1 (stereo unspecified) -2.3%
Cc1ccc(N(CC(=O)NCCc2ccccc2C)S(=O)(=O)N(C)C)cc1 -21.5%
COc1ccccc1CNC(=O)c1cccc(N2CCCS2(=O)=O)c1 2.52%
CCOC(=O)c1ccc(NC(=O)C2CC(=O)NC(=Nc3ccc(C)c(C)c3)S2)cc1 (stereo unspecified) -29.6%
COc1ccccc1CNC(=O)Cn1c(=O)oc2cc(S(=O)(=O)N3CCCC3)ccc21 -31.8%
CCCCN(C)CCNC(=O)c1ccc(Cn2c(=O)[nH]c3cc(OC)c(OC)cc3c2=O)cc1 2.42%
COc1ccc(-c2noc(N(c3ccc(F)c(Cl)c3)c3nc(-c4ccc(OC)c(OC)c4)no3)n2)cc1OC -39.4%
COc1cc(-c2nc(S(=O)(=O)c3ccc(Br)cc3)c(N3CCOCC3)o2)cc(OC)c1OC -20.1%
COc1ccc(Br)cc1C(=O)Nc1cccc2ccc(C)nc12 6.58%
CCc1nc2nc(C)cc(Nc3cc(Cl)ccc3C)n2n1 -18.8%
CCc1ccc(CNC(=O)c2ccc3c(Cl)c4c(nc3c2)CCCC4)cc1 0.264%
COc1ccc(Cl)cc1-n1nnc(-c2nc(-c3ccccc3)no2)c1C 11.3%
Cn1c(SCC(=O)Nc2ccccc2)nnc1-c1ccccc1 9.79%
COc1ccc(-c2nc3cc(C(C)C)ccc3o2)cc1NC(=O)c1ccccc1[N+](=O)[O-] -21.4%
O=C1OC2(c3ccc(O)cc3Oc3cc(O)ccc32)c2ccccc21 -7.21%
COc1ccc2c(c1)c(=O)c(C(=O)c1ccc(C)c(C)c1)cn2CC(=O)Nc1ccc2c(c1)OCCO2 -9.21%
CCOc1ccccc1CNC(=O)CCn1c(=O)c2cccn2c2ccc(F)cc21 -17.7%
Cc1ccc(Cn2c(CN3CCC(C(=O)NCc4ccccc4C)CC3)cc3ccccc32)cc1 -20.5%
COc1ccc(NC(=O)C2COc3ccccc3C2)cc1Cl (stereo unspecified) 23.9%
Cc1ccc2c(n1)Oc1ccc(C(C)C(=O)OCC(=O)N(C)C)cc1C2 (stereo unspecified)
COc1ccccc1N1CCN(C(=O)Cn2c(=O)n3nc(-c4ccc(C)cc4)nc3c3ccccc32)CC1 8.8%
CC(C)Cc1ccc(S(=O)(=O)N2CCC(c3ccncc3)CC2)cc1 -79.8%
COc1ccc(NC(=O)c2cccc(N3CCCS3(=O)=O)c2)cc1OC 27.9%
COC(=O)c1ccc(NC(=O)CCS(=O)(=O)c2ccc(Br)s2)cc1 -30.9%
Cc1nc(N2CCCC2)ncc1C(=O)NCc1cccc(Cl)c1 -1.19%
CCc1ccc(NC(=O)CSc2nc3ccccc3nc2Cc2ccc(C)cc2)cc1 -6.16%
COc1ccc(C)cc1NC(=O)CN1c2ccccc2S(=O)(=O)c2ccccc21 -22.6%
Cc1nnc(N2C(=O)c3oc4ccccc4c(=O)c3C2c2ccc(C(C)(C)C)cc2)s1 (stereo unspecified) -12.2%
COc1ccc(Cl)cc1NC(=O)Cn1ncc2c3ccccc3n(C)c2c1=O -14.9%
CCCN(Cc1cccs1)C(=O)Nc1cc(Cl)ccc1C -4.96%
Cc1nn(CC(=O)NCc2ccc(F)cc2)c2ccccc12 -5.16%
CCCCCCCCCCCCCCNCCO -6.1%
Cc1ccc2[nH]c3c(=O)n(CC(=O)NCc4ccco4)ncc3c2c1 -6.67%
O=C(NCc1ccc(Cl)cc1)c1ccc2c(Cl)c3c(nc2c1)CCCC3 -30.8%
Cc1ccc(C)c(N2CCN(C(=O)CCC(=O)Nc3ccc4nc(N5CCCCC5)cc(C)c4c3)CC2)c1 -5.57%
Cc1ccc(OCCSc2nnc(-c3cccs3)o2)cc1Cl -15.3%
CCOC(=O)c1cccc(NC(=O)CCCn2nc(C)c3c(C)n(-c4ccccc4)nc3c2=O)c1 -3.33%
CCOC(=O)c1c(C)n(-c2ccccc2)c2ccc(OC(=O)c3ccccc3NC(=O)C(C)C)cc12 -51.5%
CCOC(=O)c1ccc2nc(C)cc(Nc3cccc(C(=O)O)c3)c2c1 -7.07%
Cc1ccc2c(=O)cc(C(=O)Nc3sc4c(c3C(=O)NCc3ccco3)CCC4)oc2c1 8.89% [at 11.5 µM, percent change from vehicle, -100% = no light]
CC1=C(C(=O)OCc2ccc(C)cc2)C(c2ccccc2F)CC(=O)N1 (stereo unspecified) -42.5%
O=C(NCc1ccccc1F)C1CCN(c2nnc(-n3cccc3)s2)CC1 -12.4%
COc1cc(NC(=O)CCc2c(C)nn(-c3ccc(N4CCOCC4)nn3)c2C)cc(OC)c1OC 4.14%
COc1ccc2c(c1)c(=O)c(C(=O)c1ccccc1)cn2CC(=O)Nc1ccc2c(c1)OCCO2 -27.3%
